Laboratory results taken from publication PMC4336329 (PLoS ONE, 2015).
In all, about 310,000 compounds went through this assay and about 14,000 (4.5%) showed an effect of 50% or more. The effect is printed as a negative number. The list shows a part of the results.
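Note: peak tail current of the secondary pulse compared with the same well before compound.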

What follows are compounds tested against human ether-à-go-go-related gene (hERG) potassium channel (human, UniProt Q12809) (assay: primary screen, population patch clamp on CHO cells stably expressing hERG).
Chain of human ether-à-go-go-related gene (hERG) potassium channel (Q12809 whole entry, looked up): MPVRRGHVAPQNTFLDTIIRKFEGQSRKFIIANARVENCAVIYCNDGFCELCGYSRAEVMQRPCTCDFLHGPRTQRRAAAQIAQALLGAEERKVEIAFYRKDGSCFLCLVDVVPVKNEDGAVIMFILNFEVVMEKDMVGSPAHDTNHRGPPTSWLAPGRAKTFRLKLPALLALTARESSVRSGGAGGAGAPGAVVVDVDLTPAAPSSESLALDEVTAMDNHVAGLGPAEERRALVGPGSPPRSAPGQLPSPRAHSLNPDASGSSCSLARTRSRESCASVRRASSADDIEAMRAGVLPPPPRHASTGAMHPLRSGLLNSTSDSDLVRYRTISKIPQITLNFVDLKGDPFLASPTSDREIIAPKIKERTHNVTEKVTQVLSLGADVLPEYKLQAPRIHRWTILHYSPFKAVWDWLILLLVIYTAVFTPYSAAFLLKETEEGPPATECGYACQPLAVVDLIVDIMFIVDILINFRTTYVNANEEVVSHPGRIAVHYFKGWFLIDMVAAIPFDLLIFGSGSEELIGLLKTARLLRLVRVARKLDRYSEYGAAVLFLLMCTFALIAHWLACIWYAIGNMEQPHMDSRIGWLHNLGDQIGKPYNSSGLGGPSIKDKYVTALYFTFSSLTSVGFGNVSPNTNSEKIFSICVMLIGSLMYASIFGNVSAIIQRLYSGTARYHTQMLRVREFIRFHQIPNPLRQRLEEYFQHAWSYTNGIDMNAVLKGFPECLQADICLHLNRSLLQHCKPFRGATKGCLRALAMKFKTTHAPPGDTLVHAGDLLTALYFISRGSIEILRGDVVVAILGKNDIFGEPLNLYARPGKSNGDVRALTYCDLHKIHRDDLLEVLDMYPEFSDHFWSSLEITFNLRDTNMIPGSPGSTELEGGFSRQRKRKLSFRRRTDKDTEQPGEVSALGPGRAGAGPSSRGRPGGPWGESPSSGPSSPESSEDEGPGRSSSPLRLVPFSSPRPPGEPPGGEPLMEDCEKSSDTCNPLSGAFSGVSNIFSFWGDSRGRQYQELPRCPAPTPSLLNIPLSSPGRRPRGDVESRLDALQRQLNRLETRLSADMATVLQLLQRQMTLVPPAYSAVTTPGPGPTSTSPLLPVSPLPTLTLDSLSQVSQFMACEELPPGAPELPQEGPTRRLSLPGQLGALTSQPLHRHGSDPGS
`O=C(NNC(=O)c1ccccc1[N+](=O)[O-])c1cnccn1` was tested, and the “hERG current change (%, negative = inhibition) at 10uM” value was -6.66%. In the case of `Cc1ccc(CNS(=O)(=O)c2c(N)n(C)c(=O)n(C)c2=O)cc1`, the “hERG current change (%, negative = inhibition) at 10uM” value is reported as 8.77%. In the case of `CC(C)CCNS(=O)(=O)c1cc2c3c(c1)CCN3C(=O)CC2`, the “hERG current change (%, negative = inhibition) at 10uM” value is reported as 2.2%. `Cc1oc(-c2ccc(Cl)cc2)nc1CN1CCC(C(=O)NCC2CCCO2)CC1` (stereo not shown) was tested, and the “hERG current change (%, negative = inhibition) at 10uM” value was -70.1%. With `CC1CCCC(C)N1CC(O)Cn1c2ccccc2c2ccccc21` (stereo not shown) the “hERG current change (%, negative = inhibition) at 10uM” value was -37.4%. In the case of `O=c1oc2ccccc2c(Nc2cccc3cccnc23)c1[N+](=O)[O-]`, the “hERG current change (%, negative = inhibition) at 10uM” value is reported as 17.8%. For `COc1ccc(/C=C2\SC(=S)N(CC(=O)NCCO)C2=O)cc1`, the “hERG current change (%, negative = inhibition) at 10uM” value was 16.5%. `CC1=C(C(=O)N2CCc3ccccc32)C2(CCC(C)CC2)OC1=O` (stereo not shown) was tested, and the “hERG current change (%, negative = inhibition) at 10uM” value was -23.5%. In the case of `O=C(Nc1ccc2c(c1)CCC2)Nc1ccc(F)cc1F`, the “hERG current change (%, negative = inhibition) at 10uM” value is reported as 15.5%. In the case of `CS(=O)(=O)N(CC(=O)NCCc1ccccc1)C1CCCCC1`, the “hERG current change (%, negative = inhibition) at 10uM” value is reported as -4.17%. With `O=C(CSc1nnc(CNC(=O)c2cccs2)o1)NCCc1ccccc1` the “hERG current change (%, negative = inhibition) at 10uM” value was -1.98%. In the case of `CCc1ccc(/C=C2\SC(=S)N(CCC(=O)NC3=NCCS3)C2=O)cc1`, the “hERG current change (%, negative = inhibition) at 10uM” value is reported as 27.8%. With `O=C(c1ccc2nc[nH]c2c1)N1CCc2ccccc2C1` the “hERG current change (%, negative = inhibition) at 10uM” value was 0.829%. For `O=C(CS(=O)(=O)c1ccccc1)NCc1ccc(Cl)cc1`, the “hERG current change (%, negative = inhibition) at 10uM” value was 7.79%. `CSc1ccc(NS(=O)(=O)c2ccc(-n3cnnn3)cc2)cc1` was tested, and the “hERG current change (%, negative = inhibition) at 10uM” value was 3.08%. `CC(C)c1ccccc1NC(=O)COC(=O)Cc1c[nH]c2ccccc12` was tested, and the “hERG current change (%, negative = inhibition) at 10uM” value was 7.28%. With `O=C(NC1CC1)C1=C[C@H](C2CCCCC2)C[C@H](OCCCCO)O1` the “hERG current change (%, negative = inhibition) at 10uM” value was -16%. `Cc1ccc2[nH]c3c(=O)[nH]ncc3c2c1` was tested, and the “hERG current change (%, negative = inhibition) at 10uM” value was -0.439%. `NC(=O)c1ccccc1OCC(=O)NC12CC3CC(CC(C3)C1)C2` was tested, and the “hERG current change (%, negative = inhibition) at 10uM” value was 7.48%. In the case of `O=C(CSc1nnc2ccc(-c3ccccn3)nn12)Nc1ccccc1F`, the “hERG current change (%, negative = inhibition) at 10uM” value is reported as 17.3%. `O=C(CCS(=O)(=O)Cc1ccccc1)N1CCc2ccccc2C1` was tested, and the “hERG current change (%, negative = inhibition) at 10uM” value was -0.206%. For `Cc1cc(C)cc(NC(=O)C(OC(=O)C2=COCCO2)c2ccccc2)c1` (stereo not shown), the “hERG current change (%, negative = inhibition) at 10uM” value was -8.3%. With `O=C(CCC(=O)Nc1ccccc1Cl)NN=C1CCCC1` the “hERG current change (%, negative = inhibition) at 10uM” value was 4.23%. For `COc1cccc(NC(=O)COC(=O)Cc2ccc(Br)cc2)c1`, the “hERG current change (%, negative = inhibition) at 10uM” value was 5.51%. In the case of `COC(=O)C1=C(C)NC(=O)NC1c1ccc(-c2ccc(F)cc2)o1` (stereo not shown), the “hERG current change (%, negative = inhibition) at 10uM” value is reported as 10.8%.
